One molecule from patent publication US20240317847A1 (Bayer, published 2024) can be followed below.

For experiment [1], the target named is T1, murine IL-11 (mouse, UniProt P47873 22-199).
T1 construct: bought from Invigate; also called mIL-11; mIL11
T1 sequence: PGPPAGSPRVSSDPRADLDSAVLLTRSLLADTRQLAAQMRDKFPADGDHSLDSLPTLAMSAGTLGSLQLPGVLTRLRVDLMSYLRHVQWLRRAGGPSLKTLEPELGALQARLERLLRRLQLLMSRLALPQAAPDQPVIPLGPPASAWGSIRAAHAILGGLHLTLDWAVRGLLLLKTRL
In words: SPR, antibody captured, IL-11 as analyte. The protocol: (§1) Antibodies were captured via anti-mouse Fc IgGs (“Mouse antibody capture kit, Order No. BR100383, Cytiva) covalently amine coupled to a Series S CM5 sensor chip (Cytiva). The amine coupling was carried out according to the manufacturer's instructions using 1-ethyl-3-(3-dimethylaminopropyl) carbodiimide hydrochloride (EDC), N-hydroxysuccinimide (NHS) and ethanolamine HCl, pH 8.5 (“Amine Coupling Kit” BR-1000-50, Cytiva.). Human IL-11 (Invigate, e.g., lot #C121021-19), and murine IL-11 (Invigate, e.g., lot #C210819-09) were used as analytes. […] Based on that experiment an IL-11 concentration range was chosen to optimally determine kinetics and affinity of anti-IL-11 antibodies in multicycle kinetics mode. The sensor surface was regenerated with glycine pH 1.7 after each antigen injection. Obtained sensorgrams were double referenced (subtraction of reference flow cell signal and buffer injection) and were fitted to a 1:1 Langmuir binding model to derive kinetic data using the Biacore T200 Evaluation software or the Biacore Insight software.
(§2) For the 2nd round of germlining, single reversions were then combined on DNA level, expressed and purified as described in Example 15, and tested by SPR as described in Example 16.
(In general: SPR reads the build-up and loss of mass on a sensor chip optically.)

For experiment [2], the target named is T2, human IL-11 (human, UniProt P20809 22-199).
T2 construct: bought from Invigate; also called hIL-11; hIL11
T2 sequence: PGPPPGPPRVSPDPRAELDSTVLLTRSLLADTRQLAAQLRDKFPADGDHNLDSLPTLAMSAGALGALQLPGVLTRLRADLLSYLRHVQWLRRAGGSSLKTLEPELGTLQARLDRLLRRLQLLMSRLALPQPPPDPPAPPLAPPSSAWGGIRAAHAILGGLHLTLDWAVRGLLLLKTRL
In words: SPR, antibody captured, IL-11 as analyte. On the procedure:
as §1, §2

In experiment [3] the target is T1, murine IL-11. Kind of experiment: SPR, antibody captured, IL-11 as analyte. On the procedure: as §1
(§3) Deviations from closest human germlines in CDR regions and FW regions and potential CMC relevant residues in CDR regions were adjusted by site directed mutagenesis following standard molecular protocols or purchased from DNA synthesis providers. […]
The source holds these as a separate data set.

Experiment [4] addresses T2, human IL-11. In words: SPR, antibody captured, IL-11 as analyte. The protocol:
as §1, §3
The source holds these as a separate data set.

Experiment [5] has as its target T1, murine IL-11. In words: cell-based or functional assay.
Experiment [6] addresses T2, human IL-11. Kind of experiment: cell-based or functional assay.

Where two headings read alike, the source gives them in different places.

B1: TPP-16478 (antibody, human IgG1, lambda)
heavy: EVQLLESGGGLVQPGGSLRLSCAASGFTFSSYGMHWVRQAPGKGLEWVSVISYDGSYKYYADSVKGRFTISRDNSKNTLYLQMNSLRAEDTAVYYCAAGVPDYWGQGTLVTVSS[omitted - human IgG1 constant region]
light: QSVLTQPPSASGTPGQRVTISCTGSSSNIGAGYDVHWYQQLPGTAPKLLIYSNNERPSGVPDRFSGSKSGTSASLAISGLRSEDEADYYCAAWDDSLNGPVFGGGTKLTVLGQPKAAPSVTLFPPSSEELQANKATLVCLISDFYPGAVTVAWKADSSPVKAGVETTTPSKQSNNKYAASSYLSLTPEQWKSHRSYSCQVTHEGSTVEKTVAPTECS
notes: hIgG1, Lambda; also called WT
B1: the Kd (in general, the free concentration of one partner at which half of the binding sites on the other are occupied at equilibrium, for simple one-to-one binding) is 0.6 nM with murine IL-11 [1], 7.3 nM with human IL-11 [2], 0.83 nM in the experiment with murine IL-11 [3] and 6.6 nM with human IL-11 [4]. The “Efficacy (%), RGA” value in the experiment with murine IL-11 [5] was 90.8%; with human IL-11 [6], 51.4%. Also, the “IC50, RGA” value with murine IL-11 [5] was determined as 960 pM; with human IL-11 [6], 5.6 nM.
